In all, about 43,000 compounds went through this assay and about 200 (0.47%) were called active. Inconclusive results (about 12%) are left out. Calls come from the whole dose curve; as a rule, active = well fitted cell-killing curve with a large enough effect; inconclusive = small, poorly fitted or top-dose-only effect, or effect the other way; inactive = flat fitted curve, though single readings scatter. The list shows a part of the results.
% is set by controls: 0 for no effect and ±100 for the full control effect; potency is the fitted concentration of half-maximal effect.

The experiment can be described thus: Cell viability qHTS assay in S16 Pmp22-F2sN cells. Note: nearly all actives have a fitted effect of over 65% in size. As to conditions: S16 Pmp22-F2sN Schwann cells (luciferase reporters placed in the Pmp22 gene) viability, CellTiter-Glo, 24 h; series mostly up to 57.5 µM; activity change, negative = cytotoxicity: at the top concentration. In short, it runs like this: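 Rat S16 Schwann reporter line, 24 h treatment with library compounds delivered at 23 nL per well. Cell viability by CellTiter-Glo luminescence.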
On the technique in general: Quantitative high-throughput screening tests each substance at several concentrations.
Turning to `CNC(=O)c1c(NC(=O)c2cc(=O)c3ccccc3o2)sc2c1CCC2`, the “activity change, negative = cytotoxicity” value is inactive: 6.3%.

As for `COc1ccc(-c2nc3ccccc3s2)cc1NC(=O)c1ccccc1OC`, the “activity change, negative = cytotoxicity” value is inactive: 13.6%.

On to `Cc1cccc(NC(=O)c2sc3cccc(Cl)c3c2Cl)c1`, for which the “activity change, negative = cytotoxicity” value was inactive: -10.5%.

`Cc1cccc(C)c1NC(=O)c1ccc2nc(CCc3ccccc3)oc2c1`: the “activity change, negative = cytotoxicity” value is inactive: -27.1%.

As for `CC1=C(C(=O)Nc2ccccc2)C(c2ccncc2)n2nc(SCc3ccccc3)nc2N1` (configuration not stated), the “activity change, negative = cytotoxicity” value was inactive: 16.4%.

Turning to `Cn1c(=O)c2sccc2n2c(CCCC(=O)Nc3ccc(F)c(F)c3)nnc12`, the “activity change, negative = cytotoxicity” value is inactive: -3.49%.

`COc1cccc(-c2cc(C(F)(F)F)nc(NCc3ccc(F)cc3)n2)c1`: the “activity change, negative = cytotoxicity” value is inactive: 6.25%.

With `COc1ccc(CCNC(=O)c2ccc3c(c2)nc2n3CCOC2)cc1OC`, the “activity change, negative = cytotoxicity” value is inactive: 20.9%.

Consider `O=C(NCc1ccccc1Cl)C1CCCN(c2nc3ccccc3n3cccc23)C1` (configuration not stated), for which the “activity change, negative = cytotoxicity” value was inactive: -8.78%.

For the compound `Cc1ccc(C)c(S(=O)(=O)NCC(c2ccc(N(C)C)cc2)N2CCOCC2)c1` (configuration not stated), the “activity change, negative = cytotoxicity” value was inactive: 0.757%.

As to `Cc1cccc(-n2cc(-c3ccccc3)nc2SCC(=O)Nc2ccccc2Cl)c1`, the “activity change, negative = cytotoxicity” value was inactive: -6.95%.

Regarding `Cc1ccc(C)c(NC(=O)C(C)N(c2ccccc2)S(C)(=O)=O)c1` (configuration not stated), the “activity change, negative = cytotoxicity” value is inactive: 15.4%.

Take `Cc1oc2ncn(CC(C)C)c(=O)c2c1C(=O)Nc1ccc(Cl)cn1`: the “activity change, negative = cytotoxicity” value was inactive: 7.93%.

In the case of `COc1ccc(-n2c(-c3ccc(Cl)cc3)cc3c2CC(C)(C)CC3=O)c(OC)c1`, the “activity change, negative = cytotoxicity” value is inactive: -8.2%.

For the compound `CCOC(=O)c1sc(NC(=O)c2nc(SC)ncc2Cl)c(C(=O)OCC)c1C`, the “activity change, negative = cytotoxicity” value is inactive: -4.92%.

Take `Cc1cccc(OCCn2nnc3sc4c(c3c2=O)CCCC4)c1`: the “activity change, negative = cytotoxicity” value is inactive: 7.85%.

In the case of `CC(C)c1ccc(NS(=O)(=O)c2ccc3[nH]cc(C(=O)NC4CCCCC4)c(=O)c3c2)cc1`, the “activity change, negative = cytotoxicity” value is inactive: -5.79%.

Regarding `CCOc1ccc(CNCCNC(=O)c2nonc2N)cc1`, the “activity change, negative = cytotoxicity” value was inactive: 7.59%.

Take `O=C(NCCc1ccc(F)cc1)C(=O)NCC(c1cccs1)S(=O)(=O)c1cccs1` (configuration not stated): the “activity change, negative = cytotoxicity” value was inactive: -9.66%.

On to `COc1ccc(-c2cc(-c3ccccc3)nc3c2COc2ccc(Cl)cc2-3)cc1`, for which the “activity change, negative = cytotoxicity” value is inactive: 26.1%.

As for `COc1ccc(NC(=O)Nc2cn(CC(C)C)c(=O)c3ccccc23)c(OC)c1`, the “activity change, negative = cytotoxicity” value is inactive: -4.89%.

Consider `CCOC(=O)N1CCC(NC(=O)c2cnn(-c3cccc(C)c3)c2-n2cccc2)CC1`, for which the “activity change, negative = cytotoxicity” value is inactive: 4.28%.

With `CC(=O)N1CCCc2cc(S(=O)(=O)N3CCC(C(=O)NC4CCCCC4)CC3)ccc21`, the “activity change, negative = cytotoxicity” value was inactive: 6.5%.

In the case of `CCN1C(=O)C(O)(c2c(C)[nH]c3ccccc23)c2ccccc21` (configuration not stated), the “activity change, negative = cytotoxicity” value was inactive: -11.4%.

For the compound `COc1ccc(NC(=O)CSC2=Nc3ccccc3C3=NC(CCC(=O)NCCc4ccccc4)C(=O)N23)cc1` (configuration not stated), the “activity change, negative = cytotoxicity” value is inactive: 1.76%.

As to `CC(C)(C)OC(=O)N1CCC(c2c(C(=O)N3CCN(C4CCCCC4)CC3)cnn2-c2cccc(Cl)c2)CC1`, the “activity change, negative = cytotoxicity” value was inactive: -27.7%.

In the case of `COC(=O)c1ccc(NS(=O)(=O)c2ccc3[nH]c4c(c3c2)CCCCC4)cc1`, the “activity change, negative = cytotoxicity” value was inactive: -5.84%.

In the case of `COc1cccc(N2C(=O)CSC23C(=O)N(CC(=O)Nc2cc(C)ccc2C)c2ccccc23)c1` (configuration not stated), the “activity change, negative = cytotoxicity” value is inactive: 2.5%.

In the case of `COc1ccc(OC)c(CCNC(=O)CCCc2nnc3n(C)c(=O)c4sccc4n23)c1`, the “activity change, negative = cytotoxicity” value was inactive: 22.7%.

As to `COC(=O)c1ccc(NC(=O)c2nn(C)c3c2CS(=O)(=O)c2ccccc2-3)cc1`, the “activity change, negative = cytotoxicity” value was inactive: 3.7%.

Consider `COc1cc(CN2CCc3nc(Nc4ccc5c(c4)OCCO5)ncc3C2)cc(OC)c1OC`, for which the “activity change, negative = cytotoxicity” value is inactive: -3.94%.

For the compound `Cc1ccc(Cn2c(C)c(CNC3CCCCC3)c(C(=O)O)c2C)cc1`, the “activity change, negative = cytotoxicity” value was inactive: 7%.

As to `CCC(=O)N1CCc2cc(S(=O)(=O)NC(C(=O)NCc3ccc(OC)cc3)C(C)C)ccc21` (configuration not stated), the “activity change, negative = cytotoxicity” value was inactive: -0.681%.

Regarding `Cc1ccc(Cl)cc1NC(=O)c1oc2ccc(S(=O)(=O)N3CCC4(CC3)OCCO4)cc2c1C`, the “activity change, negative = cytotoxicity” value was inactive: 3.5%.

With `Cc1cc(C)c(NC(=O)c2sc3nc(C)cc(C)c3c2N)c(C)c1`, the “activity change, negative = cytotoxicity” value is inactive: -1.14%.

Take `COc1ccc(C)cc1NC(=O)CN1CCN(CC(=O)Nc2ccccc2F)CC1`: the “activity change, negative = cytotoxicity” value is inactive: 3.68%.

`Cc1ccc2sc(N3CCN(C(=O)C4COc5ccccc5O4)CC3)nc2c1C` (configuration not stated): the “activity change, negative = cytotoxicity” value is inactive: 5.35%.

For the compound `COc1ccc2[nH]cc(CCNC(=O)Nc3ccccc3C)c2c1`, the “activity change, negative = cytotoxicity” value is inactive: -11.2%.

Regarding `CC1CCN(S(=O)(=O)c2ccc3nc(-c4cccnc4)cc(C(=O)NCCCOC(C)C)c3c2)CC1`, the “activity change, negative = cytotoxicity” value was inactive: 3.38%.

Turning to `COc1ccc(CCNC(=O)c2ccc(CS(=O)(=O)c3ccc(C)cc3)o2)cc1OC`, the “activity change, negative = cytotoxicity” value is inactive: -2.98%.

For `COc1cccc(N2CCN(S(=O)(=O)c3ccc(-c4cnc(C5CC5)o4)cc3)CC2)c1`, the Potency was active: 15.8 µM.

As for `CCOC(=O)C1CCCN(CCC(=O)Nc2ccc(OC)cc2OC)C1` (configuration not stated), the “activity change, negative = cytotoxicity” value is inactive: 12.7%.

`O=C(Nc1c(C(=O)N2CCN(c3ccc(F)cc3)CC2)oc2ccccc12)c1ccco1`: the “activity change, negative = cytotoxicity” value is inactive: -5.6%.

With `Cc1cccc(-n2ccnc2SCC(=O)Nc2ccccc2C(F)(F)F)c1`, the “activity change, negative = cytotoxicity” value was inactive: 0.973%.

On to `O=C(CSc1nc2ccccc2n1Cc1ccc(F)c(Cl)c1)N1CCN(c2ccc(F)cc2)CC1`, for which the “activity change, negative = cytotoxicity” value was inactive: 17.7%.

For `COc1ccc(CNC(=O)CCc2c(C)nc3c(c2C)c(=O)n(C)c(=O)n3C)cc1`, the “activity change, negative = cytotoxicity” value is inactive: -8.89%.

Turning to `CCn1cc(C(=O)NCCc2ccccc2)c(=O)c2cc(S(=O)(=O)N3CCOCC3)ccc21`, the “activity change, negative = cytotoxicity” value is inactive: -1.19%.

In the case of `CCCc1nn2c(=O)cc(COC(=O)c3ccc(NC(=O)c4cccs4)cc3)nc2s1`, the “activity change, negative = cytotoxicity” value is inactive: -47.7%.

As for `CCc1ccc(NC(=O)CSC2=Nc3ccccc3C3=NC(CCC(=O)NCc4cccs4)C(=O)N23)cc1` (configuration not stated), the “activity change, negative = cytotoxicity” value is inactive: -4.86%.

Regarding `CCC(=O)N1CCc2cc(Br)cc(S(=O)(=O)CCC(=O)NCc3ccccc3)c21`, the “activity change, negative = cytotoxicity” value was inactive: 0.0911%.

For `COc1cccc(NC(=O)c2cc(CN3CCOCC3)on2)c1`, the “activity change, negative = cytotoxicity” value was inactive: -3.95%.

With `Cc1cccc2c1-c1sc(C(=O)NCc3ccccc3Cl)cc1CO2`, the “activity change, negative = cytotoxicity” value is inactive: -1.61%.

In the case of `O=c1ccc2cc(S(=O)(=O)N3CCCC3)ccc2[nH]1`, the “activity change, negative = cytotoxicity” value is inactive: 3.23%.

Take `COc1ccccc1CNC(=O)c1c2c(nc3ccccc13)C(=O)N(C1CCCCC1)C2`: the “activity change, negative = cytotoxicity” value is inactive: -1.12%.

For `CSc1cccc(NC(=O)CN(C)S(=O)(=O)c2ccc3c(c2)n(C)c(=O)c(=O)n3C)c1`, the “activity change, negative = cytotoxicity” value was inactive: -3.78%.

Regarding `Cc1nn2c(=O)cc(COC(=O)c3ccc(C(C)(C)C)cc3)nc2s1`, the “activity change, negative = cytotoxicity” value was inactive: -7.53%.

Turning to `Cc1ccc(NC(=O)NCCc2c(C)nn(C)c2C)c(Cl)c1`, the “activity change, negative = cytotoxicity” value is inactive: 4.5%.

Turning to `COc1cc(C(=O)NCc2ccc3c(c2)CCN3C(=O)c2ccncc2)cc(OC)c1OC`, the “activity change, negative = cytotoxicity” value was inactive: -1.17%.

As for `COc1cccc(/C=C/c2nc(C#N)c(N(C)Cc3ccccc3)o2)c1`, the “activity change, negative = cytotoxicity” value is inactive: 7.43%.

With `COc1ccc(-c2noc(CSCC(=O)Nc3ccc(C)cc3Br)n2)cc1OC`, the “activity change, negative = cytotoxicity” value is inactive: -2.33%.

As to `COCCCNC(=O)CN1C(=O)c2c(c3ccccc3n2C)C1c1ccc(OC)cc1` (configuration not stated), the “activity change, negative = cytotoxicity” value is inactive: -5.21%.

On to `CCCCSc1ncnc2c1sc1nc(N3CCOCC3)c3c(c12)CCCC3`, for which the “activity change, negative = cytotoxicity” value is inactive: 6.62%.

The values are drawn from PubChem BioAssay AID1508642 (National Center for Advancing Translational Sciences (NCATS), 2021).
